# According to the supplement of paper PMC10037445:
# The full ranking holds about 2,900 compounds; the median of “NF-kB SEAP reporter activity, fold change vs agonist alone” is about 0.99, and the highest 2% start at about 2.6. This is one part of the list.
# Key:
# RAW-Dual [1] = assay: NF-kB SEAP reporter activity, fold change vs agonist alone; higher = enhanced NF-kB activity
# How it was run: (§1)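 After 50 nL of library stock was delivered by pin tool to RAW-Dual macrophages (50,000 cells/well, DMEM, 384-well plates), a PRR agonist was added 1 h later and the plates were kept at 37 °C, 5% CO2. Twenty hours later, IRF was read from supernatant by QuantiLuc luminescence and NF-κB by QuantiBlue absorbance at 620 nm. Reporter activity is stated as fold change over agonist-alone wells. Wells with IncuCyte confluency under 70% of agonist controls in both mask sets were counted as cytotoxic.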
# RAW-Dual [2] = assay: NF-kB SEAP reporter activity, fold change vs agonist alone; cytotoxicity flag (confluency mask): cytotoxic (confluency <70% of control); higher = enhanced NF-kB activity
# How it was run: as §1
# RAW-Dual [3] = assay: NF-kB SEAP reporter activity, fold change vs agonist alone; cytotoxicity flag (confluency mask): not cytotoxic; higher = enhanced NF-kB activity
# How it was run: as §1
# [4] = library stock concentration (final ~1000-fold dilution): 10 mM, cytotoxicity flag (confluency mask): cytotoxic (confluency <70% of control), agonist: MPLA (TLR4) […]
# [5] = agonist: ODN 1826 (TLR9) 0.5 ug/mL
# [6] = agonist: Pam2CSK4 (TLR2/6) 0.1 ug/mL
# [7] = agonist: Pam3CSK4 (TLR2/1) 0.1 ug/mL
# [8] = library stock concentration (final ~1000-fold dilution): 10 mM, cytotoxicity flag (confluency mask): not cytotoxic, agonist: Imiquimod (TLR7) […]
# [9] = library stock concentration (final ~1000-fold dilution): 10 mM, cytotoxicity flag (confluency mask): not cytotoxic, agonist: MPLA (TLR4) […]
# [10] = library stock concentration (final ~1000-fold dilution): 10 mM, cytotoxicity flag (confluency mask): cytotoxic (confluency <70% of control), agonist: Imiquimod (TLR7) […]
structure (smiles),measurement,setting,value
CCCCCCCCCCCCCCCCCC[N+](C)(C)C,NF-kB SEAP reporter activity,RAW-Dual [1]; [4],1.75
CCCCCCCCCCCCCCCCCC[N+](C)(C)C (library stock concentration (final ~1000-fold dilution): 10 mM),NF-kB SEAP reporter activity,RAW-Dual [2]; agonist: LPS (TLR4) 0.1 ug/mL,0.996
same,NF-kB SEAP reporter activity,RAW-Dual [2]; [5],1.37
same,NF-kB SEAP reporter activity,RAW-Dual [2]; [6],0.699
same,NF-kB SEAP reporter activity,RAW-Dual [2]; [7],0.534
Cn1cc(-c2ccc3nnc(C(F)(F)c4ccc5ncccc5c4)n3n2)cn1 (library stock concentration (final ~1000-fold dilution): 10 mM),NF-kB SEAP reporter activity,RAW-Dual [3]; agonist: LPS (TLR4) 0.1 ug/mL,0.887
same,NF-kB SEAP reporter activity,RAW-Dual [3]; [5],1.06
same,NF-kB SEAP reporter activity,RAW-Dual [3]; [6],0.93
same,NF-kB SEAP reporter activity,RAW-Dual [3]; [7],1.08
Cn1cc(-c2ccc3nnc(C(F)(F)c4ccc5ncccc5c4)n3n2)cn1,NF-kB SEAP reporter activity,RAW-Dual [1]; [8],0.862
same,NF-kB SEAP reporter activity,RAW-Dual [1]; [9],0.902
c1ccc2[nH]c(-c3cscn3)nc2c1,NF-kB SEAP reporter activity,RAW-Dual [1]; [8],0.818
same,NF-kB SEAP reporter activity,RAW-Dual [1]; [9],0.832
c1ccc2[nH]c(-c3cscn3)nc2c1 (library stock concentration (final ~1000-fold dilution): 10 mM),NF-kB SEAP reporter activity,RAW-Dual [3]; agonist: LPS (TLR4) 0.1 ug/mL,1.09
same,NF-kB SEAP reporter activity,RAW-Dual [3]; [5],0.886
same,NF-kB SEAP reporter activity,RAW-Dual [3]; [6],0.984
same,NF-kB SEAP reporter activity,RAW-Dual [3]; [7],0.968
Cl.Nc1ccn(C2OC(CO)C(O)C2(F)F)c(=O)n1 (centres undefined),NF-kB SEAP reporter activity,"RAW-Dual [1]; library stock concentration (final ~1000-fold dilution): 10 mM water, cytotoxicity flag (confluency mask): cytotoxic (confluency <70% of control), agonist: Imiquimod (TLR7) […]",1.47
same,NF-kB SEAP reporter activity,"RAW-Dual [1]; library stock concentration (final ~1000-fold dilution): 10 mM water, cytotoxicity flag (confluency mask): cytotoxic (confluency <70% of control), agonist: MPLA (TLR4) […]",1.18
Cl.Nc1ccn(C2OC(CO)C(O)C2(F)F)c(=O)n1 (centres undefined) (library stock concentration (final ~1000-fold dilution): 10 mM water),NF-kB SEAP reporter activity,RAW-Dual [2]; agonist: LPS (TLR4) 0.1 ug/mL,0.979
same,NF-kB SEAP reporter activity,RAW-Dual [2]; [5],1.56
same,NF-kB SEAP reporter activity,RAW-Dual [2]; [6],0.996
same,NF-kB SEAP reporter activity,RAW-Dual [2]; [7],0.954
CC(NC(CCc1ccccc1)C(=O)O)C(=O)N1CCCC1C(=O)O.O.O (centres undefined),NF-kB SEAP reporter activity,RAW-Dual [1]; [8],0.942
same,NF-kB SEAP reporter activity,RAW-Dual [1]; [9],1.12
CC(NC(CCc1ccccc1)C(=O)O)C(=O)N1CCCC1C(=O)O.O.O (centres undefined) (library stock concentration (final ~1000-fold dilution): 10 mM),NF-kB SEAP reporter activity,RAW-Dual [3]; agonist: LPS (TLR4) 0.1 ug/mL,0.977
same,NF-kB SEAP reporter activity,RAW-Dual [3]; [5],1.07
same,NF-kB SEAP reporter activity,RAW-Dual [3]; [6],1.14
same,NF-kB SEAP reporter activity,RAW-Dual [3]; [7],1.09
CCC(CC)CC1(C(=O)Nc2ccccc2SC(=O)C(C)C)CCCCC1 (library stock concentration (final ~1000-fold dilution): 10 mM),NF-kB SEAP reporter activity,RAW-Dual [3]; agonist: LPS (TLR4) 0.1 ug/mL,1.13
same,NF-kB SEAP reporter activity,RAW-Dual [3]; [5],0.44
same,NF-kB SEAP reporter activity,RAW-Dual [3]; [6],0.639
same,NF-kB SEAP reporter activity,RAW-Dual [3]; [7],0.657
CCC(CC)CC1(C(=O)Nc2ccccc2SC(=O)C(C)C)CCCCC1,NF-kB SEAP reporter activity,RAW-Dual [1]; [8],0.779
same,NF-kB SEAP reporter activity,RAW-Dual [1]; [9],0.959
O=C(N/N=C/c1c(O)ccc2ccccc12)c1ccncc1 (library stock concentration (final ~1000-fold dilution): 10 mM),NF-kB SEAP reporter activity,RAW-Dual [3]; agonist: LPS (TLR4) 0.1 ug/mL,2.18
same,NF-kB SEAP reporter activity,RAW-Dual [3]; [5],2
same,NF-kB SEAP reporter activity,RAW-Dual [3]; [6],1.15
same,NF-kB SEAP reporter activity,RAW-Dual [3]; [7],1.92
O=C(N/N=C/c1c(O)ccc2ccccc12)c1ccncc1,NF-kB SEAP reporter activity,RAW-Dual [1]; [8],2.57
same,NF-kB SEAP reporter activity,RAW-Dual [1]; [9],1.75
CNC1CN(c2ccc3c(=O)c(C(=O)O)cn(-c4nccs4)c3n2)CC1OC.Cl (centres undefined) (library stock concentration (final ~1000-fold dilution): 2 mM),NF-kB SEAP reporter activity,RAW-Dual [3]; agonist: LPS (TLR4) 0.1 ug/mL,1.11
same,NF-kB SEAP reporter activity,RAW-Dual [3]; [5],1.56
same,NF-kB SEAP reporter activity,RAW-Dual [3]; [6],1.32
same,NF-kB SEAP reporter activity,RAW-Dual [3]; [7],1.18
CNC1CN(c2ccc3c(=O)c(C(=O)O)cn(-c4nccs4)c3n2)CC1OC.Cl (centres undefined),NF-kB SEAP reporter activity,"RAW-Dual [1]; library stock concentration (final ~1000-fold dilution): 2 mM, cytotoxicity flag (confluency mask): not cytotoxic, agonist: Imiquimod (TLR7) […]",1.12
same,NF-kB SEAP reporter activity,"RAW-Dual [1]; library stock concentration (final ~1000-fold dilution): 2 mM, cytotoxicity flag (confluency mask): not cytotoxic, agonist: MPLA (TLR4) […]",0.968
COc1cc(OCc2cccc(-c3ccccc3)c2C)cc(OC)c1CN1CCCCC1C(=O)O (centres undefined),NF-kB SEAP reporter activity,RAW-Dual [1]; [10],1.22
same,NF-kB SEAP reporter activity,RAW-Dual [1]; [4],1.03
COc1cc(OCc2cccc(-c3ccccc3)c2C)cc(OC)c1CN1CCCCC1C(=O)O (centres undefined) (library stock concentration (final ~1000-fold dilution): 10 mM),NF-kB SEAP reporter activity,RAW-Dual [2]; agonist: LPS (TLR4) 0.1 ug/mL,1.21
same,NF-kB SEAP reporter activity,RAW-Dual [2]; [5],0.794
same,NF-kB SEAP reporter activity,RAW-Dual [2]; [6],1.03
same,NF-kB SEAP reporter activity,RAW-Dual [2]; [7],1.17
Cl.O=C1c2cccc3c2C(CCC3)CN1C1CN2CCC1CC2 (centres undefined),NF-kB SEAP reporter activity,"RAW-Dual [1]; library stock concentration (final ~1000-fold dilution): 10 mM water, cytotoxicity flag (confluency mask): not cytotoxic, agonist: Imiquimod (TLR7) […]",0.577
same,NF-kB SEAP reporter activity,"RAW-Dual [1]; library stock concentration (final ~1000-fold dilution): 10 mM water, cytotoxicity flag (confluency mask): not cytotoxic, agonist: MPLA (TLR4) […]",0.711
Cl.O=C1c2cccc3c2C(CCC3)CN1C1CN2CCC1CC2 (centres undefined) (library stock concentration (final ~1000-fold dilution): 10 mM water),NF-kB SEAP reporter activity,RAW-Dual [3]; agonist: LPS (TLR4) 0.1 ug/mL,0.985
same,NF-kB SEAP reporter activity,RAW-Dual [3]; [5],0.593
same,NF-kB SEAP reporter activity,RAW-Dual [3]; [6],0.966
same,NF-kB SEAP reporter activity,RAW-Dual [3]; [7],0.917
C=CC(=O)Nc1cc(N2CCN(CC)CC2)ccc1Nc1cc(N(C)C(=O)Nc2c(Cl)c(OC)cc(OC)c2Cl)ncn1,NF-kB SEAP reporter activity,RAW-Dual [1]; [8],0.877
same,NF-kB SEAP reporter activity,RAW-Dual [1]; [9],0.695
C=CC(=O)Nc1cc(N2CCN(CC)CC2)ccc1Nc1cc(N(C)C(=O)Nc2c(Cl)c(OC)cc(OC)c2Cl)ncn1 (library stock concentration (final ~1000-fold dilution): 10 mM),NF-kB SEAP reporter activity,RAW-Dual [3]; agonist: LPS (TLR4) 0.1 ug/mL,0.513
same,NF-kB SEAP reporter activity,RAW-Dual [3]; [5],0.186
same,NF-kB SEAP reporter activity,RAW-Dual [3]; [6],0.526
same,NF-kB SEAP reporter activity,RAW-Dual [3]; [7],0.517
COc1ccc(C2CC(=O)c3c(O)cc(O)cc3O2)cc1O (centres undefined),NF-kB SEAP reporter activity,RAW-Dual [1]; [8],1.28
same,NF-kB SEAP reporter activity,RAW-Dual [1]; [9],1.11
COc1ccc(C2CC(=O)c3c(O)cc(O)cc3O2)cc1O (centres undefined) (library stock concentration (final ~1000-fold dilution): 10 mM),NF-kB SEAP reporter activity,RAW-Dual [3]; agonist: LPS (TLR4) 0.1 ug/mL,1.12
same,NF-kB SEAP reporter activity,RAW-Dual [3]; [5],1.2
same,NF-kB SEAP reporter activity,RAW-Dual [3]; [6],1.26
same,NF-kB SEAP reporter activity,RAW-Dual [3]; [7],1.33
CN1CCC(COc2cnc(-c3cccc(Cn4nc(-c5cccc(C#N)c5)ccc4=O)c3)nc2)CC1,NF-kB SEAP reporter activity,RAW-Dual [1]; [8],0.726
same,NF-kB SEAP reporter activity,RAW-Dual [1]; [9],1.3
CN1CCC(COc2cnc(-c3cccc(Cn4nc(-c5cccc(C#N)c5)ccc4=O)c3)nc2)CC1 (library stock concentration (final ~1000-fold dilution): 10 mM),NF-kB SEAP reporter activity,RAW-Dual [3]; agonist: LPS (TLR4) 0.1 ug/mL,2.42
same,NF-kB SEAP reporter activity,RAW-Dual [3]; [5],0.544
same,NF-kB SEAP reporter activity,RAW-Dual [3]; [6],0.955
same,NF-kB SEAP reporter activity,RAW-Dual [3]; [7],1.41
CC(C)c1cc(C(=O)N2Cc3ccc(CN4CCN(C)CC4)cc3C2)c(O)cc1O,NF-kB SEAP reporter activity,RAW-Dual [1]; [10],0.284
same,NF-kB SEAP reporter activity,RAW-Dual [1]; [4],0.588
